What was measured:
human glucagon receptor = human glucagon receptor (human, UniProt P47871 26-477); test: cell-based or functional assay
[1] = target: human glucagon-like peptide-1 receptor (human, UniProt P43220 24-463); test: cell-based or functional assay

Sequence of human glucagon receptor (P47871 26-477): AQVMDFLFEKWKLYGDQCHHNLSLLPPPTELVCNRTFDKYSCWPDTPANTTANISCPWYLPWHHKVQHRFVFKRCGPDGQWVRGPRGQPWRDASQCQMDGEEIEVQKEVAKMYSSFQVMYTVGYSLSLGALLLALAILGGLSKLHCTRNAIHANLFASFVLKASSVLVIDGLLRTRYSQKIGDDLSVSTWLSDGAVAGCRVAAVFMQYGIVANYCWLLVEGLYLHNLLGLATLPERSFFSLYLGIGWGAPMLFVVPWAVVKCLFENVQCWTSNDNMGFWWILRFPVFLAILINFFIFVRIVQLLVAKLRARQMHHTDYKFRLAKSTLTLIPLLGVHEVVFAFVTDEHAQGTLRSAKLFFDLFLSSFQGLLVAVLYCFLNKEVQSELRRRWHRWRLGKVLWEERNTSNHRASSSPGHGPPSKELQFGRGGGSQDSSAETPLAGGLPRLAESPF

B1: Conjugate 1898: aGIPR 2G10.007 SEFL2-E384C-3360331 (other)
heavy: QVQLVESGGGVVQPGRSLRLSCAASGFTFSNYGMHWVRQAPGKGLEWVAAIWFDASDKYYAD[about 20 residues not spelt out]MNSLRAEDTAVYYCARDQAIFGVVPDYWGQGTLVTVSSASTKGPSVFPLAPSSKSTSGGTAALGCLVKDYFPEPVTVSWNSGALTSGVHTFPAVLQSSGLYSLSSVVTVPSSSLGTQTYICNVNHKPSNTKVDKKVEPKSCDKTHTCPPCPAPELLGGPSVFLFPPKPKDTLMISRTPEVTCVVVDVSHEDPCVKFNWYVDGVEVHNAKTKPCEEQYGSTYRCVSVLTVLHQDWLNGKEYKCKVSNKALPAPIEKTISKAKGQPREPQVYTLPPSREEMTKNQVSLTCLVKGFYPSDIAVEWESNGQPENNYKTTPPVLDSDGSFFLYSKLTVDKSRWQQGNVFSCSVMHEALHNHYTQKSLSLSPGK
light: EIVMTQSPATLSVSPGERATLSCRASQSVSSNLAWYQQKPGQAPRLLIYGAATRATGIPARFSGSGSGTEFTLTISSLEPEDFAVYYCQQYNNFPLTFGGGTKVEIKRTVAAPSVFIFPPSDEQLKSGTASVVCLLNNFYPREAKVQWKVDNALQSGNSQESVTEQDSKDSTYSLSSTLTLSKADYEKHKVYACEVTHQGLSSPVTKSFNRGEC
peptide: [about 20 residues not spelt out]
chain: GSPAPAPAPAPAPAPAPAPAPASGG
modifications: N-term acetyl-thioether to Cys; K28 eps-NH linked to linker C-term; C275 conjugated to linker
hGCGR EC50 (pM) (human glucagon receptor): 705 pM | hGLP-1R EC50 (pM) [1]: 9620 pM

Source: patent US20250276080A1 (Amgen, published 2025)
